This is an account of results in PMC4336329 (PLoS ONE, 2015).

Molecules are shown by their SMILES. Screen size: about 310,000 compounds; about 14,000 (4.5%) showed an effect of 50% or more. The effect is printed as a negative number. The list shows a part of the results.
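Also: peak tail current of the secondary pulse compared with the same well before compound.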

For the experiment, the target named is human ether-à-go-go-related gene (hERG) potassium channel (human, UniProt Q12809). Nature of the experiment: primary screen, population patch clamp on CHO cells stably expressing hERG.
Sequence of human ether-à-go-go-related gene (hERG) potassium channel (Q12809 whole entry, looked up): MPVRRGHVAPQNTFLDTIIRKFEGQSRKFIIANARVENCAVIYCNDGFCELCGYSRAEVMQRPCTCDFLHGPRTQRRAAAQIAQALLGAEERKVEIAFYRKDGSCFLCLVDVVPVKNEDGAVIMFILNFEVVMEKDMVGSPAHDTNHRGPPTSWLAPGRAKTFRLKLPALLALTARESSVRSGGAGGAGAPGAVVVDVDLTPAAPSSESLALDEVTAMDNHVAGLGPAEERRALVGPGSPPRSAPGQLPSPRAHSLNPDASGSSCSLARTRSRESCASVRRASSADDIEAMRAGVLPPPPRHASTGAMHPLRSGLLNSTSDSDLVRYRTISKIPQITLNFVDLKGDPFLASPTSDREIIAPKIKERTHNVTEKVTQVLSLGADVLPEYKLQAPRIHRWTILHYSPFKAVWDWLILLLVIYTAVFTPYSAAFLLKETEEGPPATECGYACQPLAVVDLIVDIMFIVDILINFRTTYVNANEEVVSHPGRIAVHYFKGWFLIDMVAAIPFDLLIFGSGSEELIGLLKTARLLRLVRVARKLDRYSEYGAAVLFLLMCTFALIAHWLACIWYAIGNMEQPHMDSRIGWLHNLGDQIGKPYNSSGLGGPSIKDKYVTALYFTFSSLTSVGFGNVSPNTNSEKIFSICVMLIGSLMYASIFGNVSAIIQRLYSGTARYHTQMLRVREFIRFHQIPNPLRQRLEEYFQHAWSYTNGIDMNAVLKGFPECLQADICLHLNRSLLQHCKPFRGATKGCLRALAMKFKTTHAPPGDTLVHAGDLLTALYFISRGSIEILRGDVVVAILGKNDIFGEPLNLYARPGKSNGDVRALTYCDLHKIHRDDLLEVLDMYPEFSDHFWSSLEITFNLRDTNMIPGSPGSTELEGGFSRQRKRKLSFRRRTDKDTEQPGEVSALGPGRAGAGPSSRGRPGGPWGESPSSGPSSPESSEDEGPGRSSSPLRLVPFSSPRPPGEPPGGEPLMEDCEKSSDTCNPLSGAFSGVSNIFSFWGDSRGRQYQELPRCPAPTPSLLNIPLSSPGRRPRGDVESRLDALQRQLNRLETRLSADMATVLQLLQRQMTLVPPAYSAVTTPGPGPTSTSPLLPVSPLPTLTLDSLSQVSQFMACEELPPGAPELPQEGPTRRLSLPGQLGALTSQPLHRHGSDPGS
`CC(=O)Nc1nc2n(n1)C(c1ccc(Cl)cc1)C=C(C)N2` (stereo not shown): the “hERG current change (%, negative = inhibition) at 10uM” value is given as -15.7%.
With `Cc1ccc(S(=O)(=O)NC2CC2)cc1`, the “hERG current change (%, negative = inhibition) at 10uM” value stood at 11.7%.
The result for `COc1ccccc1-n1c(-c2ccccc2Cl)nc2ccccc2c1=O` reads -7.34%.
The result for `Cc1ccc(OCC(=O)NC2CCCc3ccccc32)c(C)c1` (stereo not shown) reads -5.04%; that for `CC(=O)c1ccc2c(c1)c1ccccc1n2CC(C)C`, -4.87%.
With `COc1ccc(C(=O)OCC(=O)NC(=O)NC2CCCC2)c(O)c1`, the “hERG current change (%, negative = inhibition) at 10uM” value worked out at 25.3%.
The value for `Cc1cc(C)cc(NC(=S)N2CCN(S(=O)(=O)c3ccccc3)CC2)c1` was 0.86%.
The value for `Cc1cc(C)c2nc(N3C(=O)C(O)=C(C(=O)c4ccco4)C3c3ccc(O)cc3)sc2c1` (stereo not shown) was 18.3%.
The result for `COc1ccccc1C(=O)NC(=S)NC12CC3CC(CC(C3)C1)C2` reads -5.02%; that for `COC(=O)c1cc(Br)c(=O)n(Cc2ccc3c(c2)OCO3)c1`, -9.61%.
In the case of `O=C(Cc1ccccc1)NCC1OCCc2ccccc21` (stereo not shown), the “hERG current change (%, negative = inhibition) at 10uM” value amounted to 23.6%.
The result for `CCc1ccc(S(=O)(=O)NCCc2csc(-c3cccnc3)n2)s1` reads -32.1%; that for `CC(C)CCNC(=O)NC(=O)CSc1nnc(-c2ccccc2F)n1N`, -29.8%.
The value for `CC(C)(C)NC(=O)C(c1ccc(OCC(N)=O)cc1)N(C(=O)c1cccnc1)C1CC1` (stereo not shown) was 1.73%; that for `COC(=O)Nc1ccc(S(=O)(=O)N2CCCC(C(=O)N3CC(C)OC(C)C3)C2)cc1` (stereo not shown) was 16.7%; that for `Cc1ccc(C)c(N=C2CCCN2Cc2ccccc2)c1C#N` was -12.1%.
The value for `CCN(CC)S(=O)(=O)c1ccc(C(=O)N2CCN(CCN3C(=O)c4cccc5cccc(c45)C3=O)CC2)cc1` was 25.7%; that for `COc1ccc(OC)c(NC(=O)c2nnn(Cc3ccc(Br)cc3F)c2N)c1` was 12.7%.
As for `C/C(CCc1ccccc1)=N\NC(=S)NCCc1ccccc1`, the “hERG current change (%, negative = inhibition) at 10uM” value came out at 15.6%.
With `COC(=O)CCP(=O)(O)Cc1ccccc1CP(=O)(O)CCC(=O)OC`, the “hERG current change (%, negative = inhibition) at 10uM” value was -5.43%.
For the molecule `CCOC(=O)CSC1=C(C#N)C(c2ccccc2Cl)C(C(=O)OC)C(=O)N1` (stereo not shown), the “hERG current change (%, negative = inhibition) at 10uM” value is 1.4%.
The result for `COC(=O)C1CCCCN1C(=O)CCc1nnc(CCc2c[nH]c3ccccc23)o1` (stereo not shown) reads 13.7%; that for `COc1ccc2cc(C)c3nnc(SCC(=O)Nc4nc(-c5ccccc5)cs4)n3c2c1`, -15.5%; that for `Cc1ccc(C)c(Cn2c(=O)n(CCCC(=O)NCc3ccco3)c(=O)c3ccccc32)c1`, 0.892%.
The value for `Cc1ccc2cc(CN(CC3CCCO3)C(=S)NCc3ccco3)c(=O)[nH]c2c1C` (stereo not shown) was -40.8%; that for `COc1ccc(N2C(=O)C(CC(=O)Nc3ccccc3)N(Cc3ccccn3)C2=S)cc1` (stereo not shown) was -18.7%; that for `O=C(NCc1ccco1)C1CCCN(S(=O)(=O)c2cccc3nsnc23)C1` (stereo not shown) was 0.547%.
The result for `O=C(CN1CCOCC1)Nc1ccccc1NC(=O)C1CCN(c2ncccn2)CC1` reads 9.55%; that for `O=C(c1ccncc1)N1N=C(c2ccc(Cl)cc2)CC1c1ccccc1O` (stereo not shown), 18.1%; that for `CC[C@@]12C(=O)N(c3cccc(Br)c3)C(=O)N1[C@H](c1ccc(OC)cc1)[C@@H]1C(=O)N(C(C)(C)C)C(=O)[C@@H]12`, -2.53%.
For `COc1ccc(C(CC(=O)Nc2nccs2)n2cccc2)cc1` (stereo not shown), the “hERG current change (%, negative = inhibition) at 10uM” value is listed as 10.2%.
The result for `Cc1ccc(S(=O)(=O)N2CCOCC2)cc1C(=O)Nc1ccc(S(=O)(=O)Nc2nccs2)cc1` reads -3.9%; that for `O=C(Nc1ccccc1)c1ccccc1OCc1cccc([N+](=O)[O-])c1`, 11.8%; that for `Cc1ccc(-c2nnc(COc3cccc(-n4cnnn4)c3)o2)cc1`, -2.89%.
The result for `CCC(C)[C@H](NC(=O)N1CCn2c1nc1ccccc12)C(=O)NCc1ccccc1` (stereo partly shown) reads 6.25%; that for `CCCN1C(=O)/C(=C/c2nc3ccccc3c(=O)[nH]2)c2cc(C)ccc21`, 6.59%; that for `Cn1c(Nc2ccc(F)cc2)nc2ccccc21`, -51.7%.
As for `CS(=O)(=O)N1CCN(c2ccccc2NC(=O)CSc2nnc(-c3ccco3)o2)CC1`, the “hERG current change (%, negative = inhibition) at 10uM” value is -21.7%.
The result for `Cc1nn(C)c(-c2n[nH]c(=S)n2Cc2ccco2)c1Cl` reads 11.7%; that for `Nc1ccccc1C(=O)N1CCC(O)(c2ccc(Cl)cc2)CC1`, 2.69%.
The value for `Cc1ccc(-c2csc(Nc3ccccn3)n2)cc1` was -23.7%; that for `CC(Sc1nnc(Cc2ccccc2)n1C)C(=O)NC1CC1` (stereo not shown) was 9.9%; that for `COc1ccc(-c2nc(CN3CCC(C(=O)NC4CCN(Cc5ccccc5)CC4)CC3)c(C)o2)cc1OC` was 1.67%.
The value for `COc1ccccc1CCNC(=O)C(=O)NCC1OCCN1S(=O)(=O)c1ccc(OC)c(OC)c1` (stereo not shown) was -25.7%; that for `O=C1C2C3CCC(C3)C2C(=O)N1CNc1ccc(F)cc1` (stereo not shown) was -2.99%; that for `O=C(NCC(=O)N1CCCCCC1)c1ccc(Br)cc1` was -7.84%.
Regarding `CCCCS(=O)(=O)Nc1ccc2ncn(C)c(=O)c2c1`, the “hERG current change (%, negative = inhibition) at 10uM” value is recorded as -1.78%.
The value for `CCCC(=O)NC(=S)Nc1ccc(NC(=O)c2cccs2)cc1` was -6.62%; that for `COc1ccc(-n2c(Cc3cccn3C)nnc2SCC(=O)Nc2ccc3c(c2)OCCO3)cc1` was -7.95%.
The result for `O=C(N/N=C/c1cccc(Oc2ccccc2)c1)c1ccccc1F` reads 4.39%.
As to `O=C1C=C(NCc2ccccc2)C2(CCCCC2)O1`, the “hERG current change (%, negative = inhibition) at 10uM” value is given as 0.0967%.
`CC1(c2ccccc2)NC(=O)N(CC(=O)Nc2ccc3c(c2)OCO3)C1=O` (stereo not shown): the “hERG current change (%, negative = inhibition) at 10uM” value is -2.96%.
The result for `N#Cc1c(NCCN)nc(-c2ccccc2)c2c1CCCC2` reads -35.1%; that for `CSc1cccc(NC(=O)CN2C(=O)c3ccccc3S2(=O)=O)c1`, -29.3%; that for `Cc1cccc2sc(NC(=O)CCNS(=O)(=O)c3cccc4nonc34)nc12`, -1.93%.
